# Some of the results follow.
# B1: PhoQ; a variant is named by its letters at X, in order, P23837 (parent)
# chain: MKKLLRLFFPLSLRVRFLLATAAVVLVLSLAYGMVALIGYSVSFDKTTFRLLRGESNLFYTLAKWENNKLHVELPENIDKQSPTMTLIYDENGQLLWAQRDVPWLMKMIQPDWLKSNGFHEIEADVNDTSLLLSGDHSIQQQLQEVREDDDDAEMTHSVAVNVYPATSRMPKLTIVVVDTIPVELKSSYMVWSWFIYVLSANLLLVIPLLWVAAWWSLRPIEALAKEVRELEEHNRELLNPATTRELTSLVRNLNRLLKSERERYDKYRTTLTDLTHSLKTPLXXLQXXLRSLRSEKMSVSDAEPVMLEQISRISQQIGYYLHRASMRGGTLLSRELHPVAPLLDNLTSALNKVYQRKGVNISLDISPEISFVGEQNDFVEVMGNVLDNACKYCLEFVEISARQTDEHLYIVVEDDGPGIPLSKREVIFDRGQRVDTLRPGQGVGLAVAREITEQYEGKIVAGESMLGGARMEVIFGRQHSAPKDE
# Variants of: B1
# Assay: enrichment ratio after two sorts for PhoP signalling (ratio (wild type AVST 3.29)); higher = more functional
# Settings: with PhoP (E. coli)
row,Variant,enrichment ratio
1,IDER,≤ 0.25
2,ENPE,≤ 0.25
3,NFKR,≤ 0.25
4,NTQK,≤ 0.25
5,LKDE,≤ 0.25
6,FDAT,≤ 0.25
7,NMYA,≤ 0.25
8,LMKM,≤ 0.25
9,DTMR,≤ 0.25
10,GLAF,4.74
11,KFKL,≤ 0.25
12,MEVW,≤ 0.25
13,AEFP,≤ 0.25
14,EVVD,≤ 0.25
15,RSMF,≤ 0.25
16,NHPN,≤ 0.25
17,DCEQ,≤ 0.25
18,MWFQ,≤ 0.25
19,HLEK,≤ 0.25
20,ARQR,≤ 0.25
21,RLDG,≤ 0.25
22,FAWF,≤ 0.25
23,RKGR,≤ 0.25
24,PDWS,≤ 0.25
25,LYDL,≤ 0.25

row,Variant,enrichment ratio
1,LNTH,≤ 0.25
2,GCKW,≤ 0.25
3,QTGL,10.7
4,KVGF,≤ 0.25
5,NSAG,≤ 0.25
6,WPQN,≤ 0.25
7,NKPT,≤ 0.25
8,AAFC,≤ 0.25
9,SRWK,≤ 0.25
10,NPPG,≤ 0.25
11,SMFW,≤ 0.25
12,NCFC,≤ 0.25
13,GQFA,≤ 0.25
14,TDSF,≤ 0.25
15,PIWC,≤ 0.25
16,LMCW,≤ 0.25
17,SSRP,≤ 0.25
18,GNYL,≤ 0.25
19,KVTL,≤ 0.25
20,QGVF,≤ 0.25
21,KEEL,≤ 0.25
22,QAKM,≤ 0.25
23,HQCD,≤ 0.25
24,DFDM,≤ 0.25
25,RRIR,≤ 0.25

row,Variant,enrichment ratio
1,PEIK,≤ 0.25
2,AMII,≤ 0.25
3,QTGI,≤ 0.25
4,IAIK,≤ 0.25
5,ICQH,≤ 0.25
6,AGYK,≤ 0.25
7,PVNW,≤ 0.25
8,IRRD,≤ 0.25
9,CAFL,≤ 0.25
10,MGIV,10.1
11,DDAE,≤ 0.25
12,HMGC,≤ 0.25
13,FQVL,0.38
14,PDKF,≤ 0.25
15,GSRE,≤ 0.25
16,QKYE,≤ 0.25
17,NCTP,≤ 0.25
18,GYTI,0.281
19,PVPL,≤ 0.25
20,ENDT,≤ 0.25
21,FHSV,≤ 0.25
22,EHHE,≤ 0.25
23,STAM,12.1
24,GFAS,≤ 0.25
25,LTMH,2.1

row,Variant,enrichment ratio
1,VLST,≤ 0.25
2,ITFH,≤ 0.25
3,LELI,2
4,QYRA,≤ 0.25
5,RVTG,≤ 0.25
6,TDGY,11.5
7,KQRN,≤ 0.25
8,PDCE,≤ 0.25
9,RFDM,≤ 0.25
10,PSRW,≤ 0.25
11,WKIP,≤ 0.25
12,CCTF,≤ 0.25
13,HTRE,≤ 0.25
14,GLMV,2.35
15,QATL,2.32
16,AELY,9.13
17,GMRR,≤ 0.25
18,LMME,≤ 0.25
19,VFMF,≤ 0.25
20,YGTV,≤ 0.25
21,KPRW,≤ 0.25
22,MNIF,≤ 0.25
23,NPCG,≤ 0.25
24,VYYF,≤ 0.25
25,NMCV,≤ 0.25

row,Variant,enrichment ratio
1,QKVW,≤ 0.25
2,QQTH,≤ 0.25
3,QRGQ,≤ 0.25
4,AEVL,17.5
5,DMIG,≤ 0.25
6,ASPE,≤ 0.25
7,IKVE,≤ 0.25
8,DHSE,≤ 0.25
9,YYEA,≤ 0.25
10,GAKV,≤ 0.25
11,SEDI,≤ 0.25
12,QMFT,≤ 0.25
13,DWDR,≤ 0.25
14,KACI,≤ 0.25
15,SHWS,0.905
16,EYGM,≤ 0.25
17,EFWM,≤ 0.25
18,IYQH,0.425
19,GDIT,14
20,VDQF,≤ 0.25
21,ELHA,≤ 0.25
22,WDRF,≤ 0.25
23,LWYI,≤ 0.25
24,TMDR,≤ 0.25
25,EAIA,≤ 0.25

row,Variant,enrichment ratio
1,RTAL,≤ 0.25
2,LFQY,≤ 0.25
3,DCFM,≤ 0.25
4,RCTN,≤ 0.25
5,FIAF,≤ 0.25
6,ANTY,4.81
7,IMKP,≤ 0.25
8,FAAW,≤ 0.25
9,FSVF,≤ 0.25
10,EPAF,≤ 0.25
11,PCEG,1.45
12,SMCW,19.6
13,NALR,0.709
14,WDFI,≤ 0.25
15,SENK,≤ 0.25
16,ENWK,≤ 0.25
17,SEFD,≤ 0.25
18,HIMH,≤ 0.25
19,YSLY,2.6
20,DAYS,≤ 0.25
21,NFDD,≤ 0.25
22,IGSW,≤ 0.25
23,FFKN,≤ 0.25
24,DWGY,≤ 0.25
25,QEVH,≤ 0.25

row,Variant,enrichment ratio
1,NPAF,≤ 0.25
2,NEFQ,≤ 0.25
3,WGSW,≤ 0.25
4,KHAC,≤ 0.25
5,MPCM,≤ 0.25
6,FLHL,≤ 0.25
7,RKCY,≤ 0.25
8,VRCP,≤ 0.25
9,IGSC,≤ 0.25
10,AWQR,≤ 0.25
11,DKYG,≤ 0.25
12,AAEW,≤ 0.25
13,EELV,≤ 0.25
14,ATQK,≤ 0.25
15,FVPA,≤ 0.25
16,FHSC,≤ 0.25
17,KPSG,≤ 0.25
18,QRWY,≤ 0.25
19,VGLY,0.455
20,VPFQ,≤ 0.25
21,HQYV,≤ 0.25
22,LKRN,≤ 0.25
23,VNAY,≤ 0.25
24,LEPA,≤ 0.25
25,IELT,2.32

row,Variant,enrichment ratio
1,YNKY,≤ 0.25
2,HFHH,≤ 0.25
3,MTMC,≤ 0.25
4,VRTY,≤ 0.25
5,VYCF,≤ 0.25
6,IPFP,≤ 0.25
7,DNGN,≤ 0.25
8,EPGC,≤ 0.25
9,NSIV,≤ 0.25
10,QAAT,≤ 0.25
11,GQKW,≤ 0.25
12,PYPN,≤ 0.25
13,QHCI,≤ 0.25
14,IRFM,≤ 0.25
15,FWIA,≤ 0.25
16,RYPR,≤ 0.25
17,EFHL,≤ 0.25
18,ITRT,≤ 0.25
19,NMAQ,≤ 0.25
20,IFSQ,≤ 0.25
